# From the BET-seq Pho4 binding data (Le et al. 2018)
# This is one part of the list. The energies were worked out here from pooled read counts, against the library average; single values are noisy.
# Target: T1, Pho4 (S. cerevisiae) (UniProt P07270)
# T1 sequence: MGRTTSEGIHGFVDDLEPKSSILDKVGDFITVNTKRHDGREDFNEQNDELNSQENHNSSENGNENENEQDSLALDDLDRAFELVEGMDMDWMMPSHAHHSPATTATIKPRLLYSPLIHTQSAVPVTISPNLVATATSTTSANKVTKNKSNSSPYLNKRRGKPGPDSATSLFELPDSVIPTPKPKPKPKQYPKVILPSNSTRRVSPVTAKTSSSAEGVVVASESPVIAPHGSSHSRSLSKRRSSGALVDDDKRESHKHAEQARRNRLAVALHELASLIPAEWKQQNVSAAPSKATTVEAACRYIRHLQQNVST
# Assay: relative binding free energy (BET-seq); higher = weaker binding
# Conditions: reference: library average
row,Sequence,relative binding free energy [kcal/mol]
1,AGGAACACGTGGGTCA,-0.02
2,GAGGACACGTGCTGGT,0.02
3,GCGTCCACGTGTAGGG,0
4,AGTGTCACGTGTTCTT,0.07
5,GGTGGCACGTGCGGCC,-0.21
6,CCGATCACGTGTGGGT,0.19
7,GGGTGCACGTGATAGG,0.12
8,AGCATCACGTGCGGGG,0.13
9,GGGGGCACGTGGATCA,-0.17
10,CTGGTCACGTGAAGAG,0.24
11,GCGTTCACGTGGGAAG,0.25
12,TATCTCACGTGTCGTG,0.19
13,TCGAGCACGTGTGGCG,0.05
14,TCGGGCACGTGGAGAT,-0.13
15,GTACGCACGTGTGGTG,-0.12
16,TATGTCACGTGCATTT,0.16
17,ATGTACACGTGGTATG,-0.01
18,TGGGACACGTGAACGT,0.21
19,TGGCGCACGTGGATTT,-0.1
20,TAGTGCACGTGGAGAA,0
21,GTAGTCACGTGTAGGA,0.2
22,TATTGCACGTGTATCT,-0.01
23,TCTTGCACGTGTATGA,0.01

row,Sequence,relative binding free energy [kcal/mol]
1,TGATACACGTGGTTGA,-0.1
2,GGGTGCACGTGGTCCG,-0.14
3,GTTATCACGTGTTATT,0.32
4,GTCCTCACGTGGGTGT,0.23
5,TTGTGCACGTGCGGAG,-0.03
6,GTGTTCACGTGAAGCG,0.29
7,TGCTTCACGTGTTGAA,0.29
8,TTCAACACGTGTTTGG,0.14
9,AGAGGCACGTGTATAT,-0.15
10,CTAGTCACGTGGACGT,0.22
11,TAGAGCACGTGGGTGG,-0.29
12,TATAACACGTGTGGTT,0.15
13,TTTGTCACGTGTACAG,0.04
14,TAAATCACGTGTTAGA,0.12
15,TTAGGCACGTGTGTCG,-0.1
16,TTATCCACGTGTTTGT,-0.07
17,GTATTCACGTGGATAG,0.22
18,AGCGCCACGTGTGGTG,-0.16
19,GGGTACACGTGATGGA,0.16
20,TCGTACACGTGGGGTG,-0.16
21,GTGTACACGTGCTGAA,0.12
22,GTCTGCACGTGGGTGC,-0.03
23,GAATACACGTGTGTGG,0.01

row,Sequence,relative binding free energy [kcal/mol]
1,ATTGTCACGTGTAGCA,0.1
2,ATGGTCACGTGCTTGT,0.08
3,AATTGCACGTGGTTGG,-0.02
4,GTAATCACGTGTATGA,0.13
5,TATATCACGTGGGTAG,-0.06
6,GGTTACACGTGATTTA,0.19
7,TTTTTCACGTGGGGCC,0.13
8,TATAACACGTGTGTCG,-0.11
9,TTGTTCACGTGGATTG,0.32
10,ACAGGCACGTGGCTGG,-0.17
11,CATAACACGTGGTAGG,-0.07
12,TTTAGCACGTGAGGGG,0.13
13,GGTGGCACGTGTCCGG,-0.15
14,TTGGTCACGTGGGGCA,-0.09
15,TTTGACACGTGGGTCC,0.06
16,ATTTTCACGTGTTAGA,0.35
17,GAAGACACGTGAAGGG,0.31
18,TGACGCACGTGTAAGG,-0.08
19,CATAGCACGTGGGTGA,-0.22
20,TGTATCACGTGTCGAA,0.13
21,TTGTACACGTGTAAAA,0.33
22,TGGCTCACGTGCGGAT,0.2
23,GTGTGCACGTGTCGTC,0.09

row,Sequence,relative binding free energy [kcal/mol]
1,TGGCTCACGTGTGTGC,0.24
2,CGTTTCACGTGTCGAT,0.24
3,GGTGTCACGTGACAGT,0.11
4,CATGTCACGTGGTTGG,0.12
5,TTATACACGTGTGAGA,0.05
6,TGCGTCACGTGTAGCG,0
7,GTTTGCACGTGTCCGT,0.07
8,TGGTCCACGTGGGTGT,-0.12
9,TATATCACGTGCGTGA,0.14
10,GTATTCACGTGGGGAC,0.21
11,GTTGTCACGTGGCTGG,0.05
12,GTGTGCACGTGTGCCG,-0.01
13,GGTAGCACGTGGCGTG,-0.18
14,AATAACACGTGTGGGT,0.08
15,TAAGACACGTGACGGT,0.22
16,TGAGGCACGTGCGCTG,-0.22
17,TGTAGCACGTGCTGGT,-0.08
18,AGGATCACGTGGAGTA,0.08
19,TAGGTCACGTGAATAC,0.44
20,GTCTGCACGTGTGTGA,0.1
21,GTGTTCACGTGTAATT,0.34
22,TGGGTCACGTGCAAGT,0.09
23,ATTTTCACGTGGAATT,0.26

row,Sequence,relative binding free energy [kcal/mol]
1,TACTGCACGTGTTTTA,0.01
2,TATATCACGTGGTATT,0.04
3,TATATCACGTGTTTCG,0.09
4,TTGATCACGTGATGTC,0.36
5,CAATACACGTGGTTTG,0.01
6,AGTGGCACGTGGATGT,-0.01
7,TAGCGCACGTGTTGAG,-0.05
8,TCTTCCACGTGGGTGG,-0.14
9,ATCCGCACGTGTGGTG,-0.06
10,GGGGACACGTGCGATT,0.14
11,TGTGTCACGTGAGTCG,0.32
12,ACTGTCACGTGTGAGG,0.18
13,TTTGCCACGTGGTTGT,0.04
14,TGGTACACGTGAGAAG,0.28
15,GATTTCACGTGGGGTA,0.23
16,ACATTCACGTGATTGG,0.51
17,GTACGCACGTGTAGGG,-0.05
18,GTATTCACGTGAAAGG,0.43
19,TTTATCACGTGTAGAA,0.12
20,TTTTACACGTGTGATA,0.22
21,GATTTCACGTGTTTGT,0.37
22,GGTTACACGTGAGGCT,0.37
23,GGATTCACGTGGGGAG,0.19
